# Source: PubChem BioAssay AID686979 (National Center for Advancing Translational Sciences (NCATS), 2013)
# Among all 420,000 compounds or so, about 50,000 (12%) were called active. Inconclusive means that the source gave no clear call. Such entries were picked first, then a sample of the others. Calls follow the shape of the dose curve; as a rule, active = well fitted inhibition curve with a large enough effect; inconclusive = small, poorly fitted or top-dose-only effect; inactive = flat fitted curve, though single readings scatter. Potencies of inconclusive entries are left out as doubtful fits.
# Assay: qHTS for Inhibitors of human tyrosyl-DNA phosphodiesterase 1 (TDP1): qHTS in cells in presence of CPT; also: nearly all actives have a fitted effect of over 55% in size
# Settings: chicken DT40 Tdp1-/-;hTDP1 cells + 20 nM CPT, ATP luminescence, 48 h; series mostly up to 46.2 µM
# Outline: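 Cell growth measured by CellTiter-Glo luminescence after a minimum 48 h, 37 C compound exposure with 20 nM CPT in Tdp1-knockout DT40 cells stably expressing hTDP1, seeded 400/well; qHTS titration format.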
# Potency is read from the fitted curve at half-maximal effect; tags tell the direction and shape of the fitted curve.
row,SMILES,Potency
1,CCCCC(CCC(=O)Nc1nccs1)C(=O)O (configuration not stated),inactive
2,COc1cccc(C(=O)NCC2Cc3cccc(-c4ncccn4)c3O2)c1OC (configuration not stated),"inconclusive [inhibitor, single point]"
3,COc1ccc(CCNC(=O)Cn2c(=O)nc(-c3ccccc3)c3cc(Cl)ccc32)cc1OC,"inconclusive [inhibitor, single point]"
4,Cc1ccc(NC(NC(=O)c2cccs2)C(Cl)(Cl)Cl)cc1 (configuration not stated),"inconclusive [inhibitor, single point]"
5,O=[N+]([O-])c1cc(/C=N/Nc2nc3ccccc3[nH]2)c(O)cc1O,active: 4.61 µM
6,CCCn1c(C)cc(C(=O)CN2C(=O)c3ccccc3S2(=O)=O)c1C,"inconclusive [inhibitor, single point]"
7,CC(C)CCNC(=O)C(c1ccc(O)cc1)N(C(=O)C1COc2ccccc2O1)c1cccc(O)c1 (configuration not stated),"inconclusive [inhibitor, single point]"
8,CC(=O)Nc1ccc(S(=O)(=O)NCC2CCC(C(=O)NCCc3ccc(C)cc3)CC2)cc1 (configuration not stated),inactive
9,O=S(=O)(c1ccccc1)n1nc(-c2ccc(Cl)cc2)nc1NCc1ccccc1,"inconclusive [inhibitor, single point]"
10,Cc1nc(C(F)(F)F)ccc1C(=O)N1CCCC1(C)C(=O)NCC(C)C (configuration not stated),"inconclusive [inhibitor, full curve, poor fit]"
11,COc1ccc(NC(=O)/C=C/c2cc(Br)ccc2OC)cc1,"inconclusive [inhibitor, single point]"
12,COc1ccc(CCCC(=O)N/N=C\c2cccs2)cc1,inactive
13,CN(C)S(=O)(=O)c1cccc(NC(=O)c2ccc(COc3ccccc3)cc2)c1,active: 18.4 µM
14,O=C1N/C(=N/N=C/c2ccccc2)SC1(c1ccccc1)c1ccccc1,"inconclusive [inhibitor, single point]"
15,COc1ccc(CNC(=O)c2ccc(N3CCC4(CC3)CC(c3ccc(Cl)cc3)=NO4)c([N+](=O)[O-])c2)cc1,"inconclusive [inhibitor, partial curve, poor fit]"
16,CCN(CC)Cc1cc(O)c(CN(CC)CC)cc1O,active: 6.51 µM
17,COc1ccc(CN(CC(=O)NC2CCCC2)C(=O)CCC(=O)Nc2nc(C)cs2)cc1,inactive
18,COc1cccc(CC(=O)Nc2c(C(=O)N3CCN(c4ccccc4F)CC3)oc3ccccc23)c1,active: 5.8 µM
19,COCCCNc1nc2c(c(=O)[nH]c(=O)n2C)n1CC(O)COc1ccc(Cl)cc1 (configuration not stated),inactive
20,CCC1Oc2ccccc2N(CC(=O)NCCCN2CCOCC2)C1=O (configuration not stated),inactive
21,COc1cccc(OCC(=O)N2CCC3(CC2)CC(=O)c2ccccc2O3)c1,"inconclusive [inhibitor, single point]"
22,CC1CCCC(NC(=O)CSC2CCCCC2)C1C (configuration not stated),"inconclusive [inhibitor, single point]"
23,O=[N+]([O-])c1ccc(Nc2nc(Cl)nc(NCCO)n2)cc1,inactive
24,COc1ccccc1-n1nnnc1SCC(=O)N(CC(C)C)C1CCS(=O)(=O)C1 (configuration not stated),inactive

row,SMILES,Potency
1,COc1cc(OC)cc(-c2c(-c3cccs3)c3cc(-c4ccc(OC)c(OC)c4)ccc3n2C)c1,active: 9.2 µM
2,C/C(=C\C(=O)c1ccc(F)cc1)Nc1ccc(N2CCOCC2)cc1,inactive
3,CC(C)(C)C(=O)Nc1nc(-c2ccccc2)ns1,"inconclusive [inhibitor, partial curve, poor fit]"
4,COc1cccc(C(=O)N2c3cc(C)ccc3OCC2C(C)(C)C)c1 (configuration not stated),inactive
5,O=C(N/N=C/c1ccc2c(c1)OCO2)c1ccc(NC(=O)c2ccc(F)cc2)cc1,"inconclusive [inhibitor, partial curve, poor fit]"
6,CCOC(=O)c1nc(NCc2ccc(Cl)cc2)c2c(C)noc2n1,"inconclusive [inhibitor, single point]"
7,Clc1ccc(CN(CC2CCCO2)C(c2cccs2)c2nnnn2C2CCCC2)cc1 (configuration not stated),active: 7.31 µM
8,CCC(=O)C1=C(c2ccc(C)cc2)N(C(=O)CC)n2c(nnc2C2CCCCC2)S1,"inconclusive [inhibitor, single point]"
9,Cc1oc(-c2ccccc2Cl)nc1CSc1nc2c(c(=O)[nH]1)CCC2,"inconclusive [inhibitor, single point]"
10,CC(=O)N1CCc2cc(S(=O)(=O)NC(CC(C)C)C(=O)Nc3cc(C)cc(C)c3)ccc21 (configuration not stated),inactive
11,CC(CC(=O)N(CCC1=CCCCC1)c1c(N)n(Cc2ccccc2)c(=O)[nH]c1=O)c1ccccc1 (configuration not stated),active: 25.9 µM
12,Cc1cccc(C)c1NC(=O)CS(=O)(=O)c1nc(-c2ccc(Cl)cc2)cn1-c1ccccc1,active: 9.2 µM
13,CC1=C(C(=O)Nc2ccccc2C)C(c2ccccn2)n2ncnc2N1 (configuration not stated),inactive
14,Cn1c(=O)c2cc(NC(=S)NCc3ccccc3F)ccc2n1Cc1ccccc1,active: 16.4 µM
15,COc1ccc(Cc2nnc(SCC(=O)Nc3ccc(N4CCOCC4)cc3)o2)cc1,inactive
16,COc1ccccc1NC(=O)CN1CCN(CC(=O)Nc2ccc(C)c(F)c2)CC1,active: 16.4 µM
17,O=C(CCN1CCCCC1)NNC(=S)NC(=O)c1ccc(Br)cc1,"inconclusive [inhibitor, single point]"
18,Cc1c(Cl)cccc1NC(=O)CCOc1ccccc1,"inconclusive [inhibitor, single point]"
19,O=c1c(-c2ccccc2)c[nH]n1-c1cccc([N+](=O)[O-])c1,inactive
20,COc1ccc(NC(=O)c2ccc3c(c2)NC(=O)CS3)cc1S(=O)(=O)Nc1ccc(Br)cc1,"inconclusive [inhibitor, single point]"
21,CCOC(=O)N1CCN(C(=O)COc2ccc(S(=O)(=O)NC3CCCCC3)cc2C)CC1,"inconclusive [inhibitor, partial curve]"
22,COc1ccc2c(c1)N(C)/C(=C1/SC(=S)N(NC(C)=O)C1=O)S2,inactive
23,Cc1cc(/C=N/N2CCN(C)CC2)c(C)n1-c1ccc(Cl)cc1,"inconclusive [inhibitor, single point]"
